IC50 is the fitted dose that halves viability relative to control wells, and lower means more sensitive; a limit (>, <) means that the fit lies beyond the doses tested. The AUC spans the tested range (256-fold, ending at the top dose) of the same fit; the more sensitive the line, the further below 1. The top dose, if marked as inferred, was derived from the fitted curves, not read from the paper.

Compound in this assay: C=CC(=O)Nc1cccc(Nc2nc(NC3CCC(N(C)C)CC3)nc3c2ncn3C(C)C)c1 [WZ3105]
The experiment in a line: Viability of human cancer cell lines after 72 h of drug (GDSC screen). The note with it: top dose inferred. Here is the method: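 Human cancer cell lines in 384-well plates, medium with 10% serum, drug for 72 h over a 256-fold dose range (nine 2-fold or five 4-fold steps up to the top dose). Adherent lines were fixed and stained with the nucleic acid dye Syto60, suspension lines read with resazurin; signal relative to control wells, capped at 0 and 100%. One two-parameter sigmoid per drug and line, fitted in a mixed model over all curves with the slope shared within a line.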

On to “SNU-387 (liver, adherent, top dose 1.28 µM)”, for which the AUC was 0.823 and the half-inhibitory concentration (IC50) – broadly, the point on the concentration scale where inhibition reaches its midpoint – turned out to be 900 nM.
Take “SNU-398 (liver, adherent, top dose 1.28 µM)”: the AUC amounted to 0.757 and the concentration for half-maximal inhibition (IC50) was determined as 456 nM.
As for “SNU-407 (large intestine, adherent, top dose 1.28 µM)”, the AUC stood at 0.912 and the IC50 is above 1280 nM.
The like results for “SNU-423 (liver, adherent, top dose 1.28 µM)” were, in that order, 0.824 and 940 nM.
Turning to “SNU-449 (liver, adherent, top dose 1.28 µM)”, the AUC stood at 0.98 and the IC50 was above 1280 nM.
The like results for “SNU-475 (liver, adherent, top dose 1.28 µM)” were, in that order, 0.935 and above 1280 nM.
Take “SNU-1040 (large intestine, adherent, top dose 1.28 µM)”: the AUC stood at 0.593 and the 50% inhibitory concentration (IC50) was 157 nM.
The like results for “SNU-C1 (large intestine, suspension, top dose 10.24 µM)” were, in that order, 0.865 and above 10200 nM.
The like results for “SNU-C2B (large intestine, adherent, top dose 10.24 µM)” were, in that order, 0.477 and 543 nM.
With “SNU-C5 (large intestine, adherent, top dose 1.28 µM)”, the AUC was 0.919 and the concentration for half-maximal inhibition (IC50) is above 1280 nM.
Take “SR (lymphoid neoplasm, suspension, top dose 1.28 µM)”: the AUC was 0.551 and the IC50 is 108 nM.
Taken in the same sequence, the figures for “ST486 (Burkitt lymphoma, suspension, top dose 1.28 µM)” were 0.499 and 79.5 nM.
“SU8686 (pancreas, adherent, top dose 1.28 µM)”: the AUC came out at 0.765 and the IC50 turned out to be 524 nM.
Regarding “SU-DHL-1 (anaplastic large cell lymphoma, suspension, top dose 1.28 µM)”, the AUC turned out to be 0.627 and the half-maximal inhibitory concentration (IC50) was found to be 162 nM.
The like results for “SU-DHL-4 (B-cell lymphoma, suspension, top dose 1.28 µM)” were, in that order, 0.607 and 145 nM.
In the case of “SU-DHL-5 (B-cell lymphoma, suspension, top dose 1.28 µM)”, the AUC is 0.593 and the IC50 worked out at 135 nM.
The like results for “SU-DHL-6 (B-cell lymphoma, suspension, top dose 1.28 µM)” were, in that order, 0.445 and 58.7 nM.
Taken in the same sequence, the figures for “SU-DHL-8 (B-cell lymphoma, suspension, top dose 1.28 µM)” were 0.574 and 126 nM.
For the cell line “SU-DHL-10 (B-cell lymphoma, suspension, top dose 1.28 µM)”, the AUC is 0.607 and the IC50 was 145 nM.
The like results for “SU-DHL-16 (B-cell lymphoma, suspension, top dose 1.28 µM)” were, in that order, 0.46 and 64.1 nM.
For “SUIT-2 (pancreas, adherent, top dose 1.28 µM)”, the AUC amounted to 0.986 and the IC50 was above 1280 nM.
The like results for “SUP-B15 (lymphoblastic leukaemia, suspension, top dose 1.28 µM)” were, in that order, 0.601 and 150 nM.
The like results for “SUP-HD1 (Hodgkin lymphoma, suspension, top dose 1.28 µM)” were, in that order, 0.643 and 195 nM.
In the case of “SUP-M2 (anaplastic large cell lymphoma, suspension, top dose 1.28 µM)”, the AUC was determined as 0.564 and the IC50 stood at 114 nM.
For “SUP-T1 (T-cell lymphoblastic leukaemia, suspension, top dose 10.24 µM)”, the AUC stood at 0.203 and the IC50 came to 94.3 nM.
On to “SW13 (adrenal gland, adherent, top dose 1.28 µM)”, for which the AUC came to 0.954 and the IC50 was above 1280 nM.
The like results for “SW48 (large intestine, adherent, top dose 10.24 µM)” were, in that order, 0.768 and 3830 nM.
Taken in the same sequence, the figures for “SW156 (kidney, adherent, top dose 1.28 µM)” were 0.969 and above 1280 nM.
“SW620 (large intestine, adherent, top dose 10.24 µM)”: the AUC was 0.345 and the IC50 is 252 nM.
As to “SW626 (ovary, adherent, top dose 1.28 µM)”, the AUC worked out at 0.775 and the concentration for half-maximal inhibition (IC50) was 604 nM.
The like results for “SW684 (fibrosarcoma, adherent, top dose 1.28 µM)” were, in that order, 0.977 and above 1280 nM.
Regarding “SW756 (cervix, adherent, top dose 1.28 µM)”, the AUC amounted to 0.923 and the IC50 is above 1280 nM.
Taken in the same sequence, the figures for “SW780 (bladder, adherent, top dose 1.28 µM)” were 0.936 and above 1280 nM.
Taken in the same sequence, the figures for “SW837 (large intestine, adherent, top dose 1.28 µM)” were 0.914 and above 1280 nM.
Turning to “SW872 (soft tissue, adherent, top dose 1.28 µM)”, the AUC worked out at 0.989 and the IC50 was above 1280 nM.
Consider “SW900 (lung squamous cell carcinoma, adherent, top dose 1.28 µM)”, for which the AUC was 0.916 and the IC50 is above 1280 nM.
The like results for “SW948 (large intestine, adherent, top dose 10.24 µM)” were, in that order, 0.796 and 7640 nM.
The like results for “SW954 (urogenital system, adherent, top dose 1.28 µM)” were, in that order, 0.869 and 1200 nM.
Taken in the same sequence, the figures for “SW962 (urogenital system, adherent, top dose 1.28 µM)” were 0.939 and above 1280 nM.
Turning to “SW982 (soft tissue, adherent, top dose 1.28 µM)”, the AUC came out at 0.885 and the IC50 was above 1280 nM.
Taken in the same sequence, the figures for “SW1088 (glioma, adherent, top dose 1.28 µM)” were 0.981 and above 1280 nM.
As to “SW1116 (large intestine, adherent, top dose 1.28 µM)”, the AUC was 0.983 and the IC50 was above 1280 nM.
As to “SW1271 (small cell lung carcinoma, adherent, top dose 1.28 µM)”, the AUC came out at 0.766 and the IC50 was found to be 544 nM.
As to “SW1417 (large intestine, adherent, top dose 1.28 µM)”, the AUC amounted to 0.912 and the IC50 is above 1280 nM.
With “SW1463 (large intestine, adherent, top dose 1.28 µM)”, the AUC stood at 0.94 and the IC50 was above 1280 nM.
Taken in the same sequence, the figures for “SW1573 (lung adenocarcinoma, adherent, top dose 1.28 µM)” were 0.872 and above 1280 nM.
As for “SW1710 (bladder, adherent, top dose 1.28 µM)”, the AUC is 0.977 and the IC50 is above 1280 nM.
Taken in the same sequence, the figures for “SW1783 (glioma, adherent, top dose 1.28 µM)” were 0.989 and above 1280 nM.
For the cell line “SW1990 (pancreas, adherent, top dose 1.28 µM)”, the AUC is 0.941 and the 50% inhibitory concentration (IC50) is above 1280 nM.
The like results for “Saos-2 (osteosarcoma, adherent, top dose 1.28 µM)” were, in that order, 0.923 and above 1280 nM.
As to “SiHa (cervix, adherent, top dose 1.28 µM)”, the AUC amounted to 0.941 and the IC50 is above 1280 nM.
The like results for “T47D (breast, adherent, top dose 1.28 µM)” were, in that order, 0.744 and 597 nM.
Taken in the same sequence, the figures for “T84 (large intestine, adherent, top dose 1.28 µM)” were 0.963 and above 1280 nM.
Taken in the same sequence, the figures for “T98G (glioma, adherent, top dose 1.28 µM)” were 0.957 and above 1280 nM.
“T-24 (bladder, adherent, top dose 1.28 µM)”: the AUC came to 0.967 and the IC50 was above 1280 nM.
Taken in the same sequence, the figures for “T-T (oesophagus, adherent, top dose 1.28 µM)” were 0.786 and 549 nM.
For “TALL-1 (T-cell lymphoblastic leukaemia, suspension, top dose 1.28 µM)”, the AUC is 0.877 and the IC50 turned out to be 1190 nM.
In the case of “TC-71 (Ewing sarcoma, adherent, top dose 1.28 µM)”, the AUC came out at 0.672 and the IC50 is 220 nM.
The like results for “TCCSUP (bladder, adherent, top dose 1.28 µM)” were, in that order, 0.982 and above 1280 nM.
In the case of “TE-1 (oesophagus, adherent, top dose 1.28 µM)”, the AUC was 0.934 and the 50% inhibitory concentration (IC50) is above 1280 nM.
As to “TE-4 (oesophagus, adherent, top dose 1.28 µM)”, the AUC was 0.913 and the IC50 was above 1280 nM.
The like results for “TE-5 (oesophagus, adherent, top dose 1.28 µM)” were, in that order, 0.925 and above 1280 nM.
With “TE-6 (oesophagus, adherent, top dose 1.28 µM)”, the AUC came out at 0.957 and the IC50 is above 1280 nM.
“TE-8 (oesophagus, adherent, top dose 1.28 µM)”: the AUC worked out at 0.958 and the IC50 was above 1280 nM.
In the case of “TE-9 (oesophagus, adherent, top dose 1.28 µM)”, the AUC came to 0.987 and the IC50 was above 1280 nM.
For the cell line “TE-10 (oesophagus, adherent, top dose 1.28 µM)”, the AUC worked out at 0.834 and the IC50 stood at 814 nM.

The values are drawn from the supplement of paper PMC4967469.
